Measured values from paper PMC2191977 (The Journal of Experimental Medicine, 1995).

What was measured:
Experiment in all cases: flow cytometry on cells
B7 L200A = biological target: T1, B7 L200A (mouse, UniProt Q00609 38-306, L200A)
T1 sequence (looked up): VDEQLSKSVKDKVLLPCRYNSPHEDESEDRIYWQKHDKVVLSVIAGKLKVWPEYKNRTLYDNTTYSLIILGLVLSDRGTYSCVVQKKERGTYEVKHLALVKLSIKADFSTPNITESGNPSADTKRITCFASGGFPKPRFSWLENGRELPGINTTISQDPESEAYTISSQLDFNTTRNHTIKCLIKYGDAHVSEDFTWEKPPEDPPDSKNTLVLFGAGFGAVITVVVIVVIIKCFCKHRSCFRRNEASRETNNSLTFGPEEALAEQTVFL

B7 QD/LE (Q194L, D195E) = biological target: T2, B7 QD/LE (Q194L, D195E) (mouse, UniProt Q00609 38-306, Q194D195>LE)
T2 sequence (looked up): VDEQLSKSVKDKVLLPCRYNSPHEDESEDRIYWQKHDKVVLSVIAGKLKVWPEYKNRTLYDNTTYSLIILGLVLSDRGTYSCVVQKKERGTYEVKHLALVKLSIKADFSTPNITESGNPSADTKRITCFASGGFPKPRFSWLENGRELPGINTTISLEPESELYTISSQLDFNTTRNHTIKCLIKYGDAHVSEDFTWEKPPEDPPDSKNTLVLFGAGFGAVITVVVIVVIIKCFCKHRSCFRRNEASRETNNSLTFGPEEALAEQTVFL

murine B7 (wild type) = biological target: T3, murine B7 (wild type) (mouse, UniProt Q00609 38-306)
T3 sequence (looked up): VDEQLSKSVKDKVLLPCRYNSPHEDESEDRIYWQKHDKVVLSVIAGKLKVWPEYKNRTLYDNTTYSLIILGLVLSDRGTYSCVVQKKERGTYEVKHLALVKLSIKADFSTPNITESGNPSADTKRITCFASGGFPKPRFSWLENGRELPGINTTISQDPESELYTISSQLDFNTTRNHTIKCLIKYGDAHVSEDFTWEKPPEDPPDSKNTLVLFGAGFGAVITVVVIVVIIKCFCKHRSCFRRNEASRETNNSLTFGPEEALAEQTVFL

B7 E199A = biological target: T4, B7 E199A (mouse, UniProt Q00609 38-306, E199A)
T4 sequence (looked up): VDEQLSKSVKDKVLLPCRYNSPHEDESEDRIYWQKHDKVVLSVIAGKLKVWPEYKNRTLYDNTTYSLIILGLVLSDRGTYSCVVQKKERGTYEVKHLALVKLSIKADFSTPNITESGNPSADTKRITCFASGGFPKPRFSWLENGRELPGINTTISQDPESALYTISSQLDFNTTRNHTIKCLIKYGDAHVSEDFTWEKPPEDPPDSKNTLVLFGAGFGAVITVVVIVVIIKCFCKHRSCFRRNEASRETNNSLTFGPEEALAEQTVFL

B7 C165G = biological target: T5, B7 C165G (mouse, UniProt Q00609 38-306, C165G)
T5 sequence (looked up): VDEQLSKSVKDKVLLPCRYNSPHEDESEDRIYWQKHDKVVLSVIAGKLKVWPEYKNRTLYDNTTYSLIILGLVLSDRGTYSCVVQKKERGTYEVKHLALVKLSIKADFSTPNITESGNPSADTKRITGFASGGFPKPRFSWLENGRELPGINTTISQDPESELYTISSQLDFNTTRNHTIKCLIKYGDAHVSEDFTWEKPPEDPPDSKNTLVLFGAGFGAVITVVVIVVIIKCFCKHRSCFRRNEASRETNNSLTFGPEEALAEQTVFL

B7 E180D = biological target: T6, B7 E180D (mouse, UniProt Q00609 38-306, E180D)
T6 sequence (looked up): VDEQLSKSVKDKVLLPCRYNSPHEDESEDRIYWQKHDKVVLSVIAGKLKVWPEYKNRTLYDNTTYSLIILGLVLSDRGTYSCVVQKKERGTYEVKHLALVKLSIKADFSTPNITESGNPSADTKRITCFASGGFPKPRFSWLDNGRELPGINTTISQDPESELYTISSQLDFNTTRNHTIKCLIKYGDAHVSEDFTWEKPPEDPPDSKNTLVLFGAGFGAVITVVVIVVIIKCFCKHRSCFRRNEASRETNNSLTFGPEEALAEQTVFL

B1: CTLA4Ig (Fc fusion)
chain: not shown
% wild-type B7 binding (normalised to anti-B7 mAb 10.16A.1) (B7 L200A): 85% | MF (mean fluorescence, control subtracted) (B7 L200A): 142 MF | % wild-type B7 binding (normalised to anti-B7 mAb 10.16A.1) (B7 QD/LE (Q194L, D195E)): 26% | MF (mean fluorescence, control subtracted) (B7 QD/LE (Q194L, D195E)): 103 MF | % wild-type B7 binding (normalised to anti-B7 mAb 10.16A.1) (murine B7 (wild type)): 100% | % wild-type B7 binding (normalised to anti-B7 mAb 10.16A.1) (B7 E199A): 63% | MF (mean fluorescence, control subtracted) (B7 E199A): 108 MF | % wild-type B7 binding (normalised to anti-B7 mAb 10.16A.1) (B7 C165G): 10% | MF (mean fluorescence, control subtracted) (B7 C165G): 30 MF | % wild-type B7 binding (normalised to anti-B7 mAb 10.16A.1) (B7 E180D): 83% | MF (mean fluorescence, control subtracted) (B7 E180D): 622 MF
